According to the supplement of paper PMC11417369:
This is one part of the list.

System: PF3D7_0420300 AP2 domain 1 (GST-tagged)
Assay: gcPBM binding intensity (ln(normalized median fluorescence intensity)); higher = stronger DNA binding
Procedure, shortened: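 An Agilent 4 × 180k array of primer-extended double-stranded 36-bp intergenic genomic probes, with negative controls, was incubated for 1 h with GST-tagged P. falciparum DNA-binding domains expressed in E. coli. Alexa488 anti-GST antibody detected bound protein, scanned at 488 nm. Binding intensity is the highest Masliner-normalised natural-log median intensity across replicate spots of either probe orientation.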

Row | Sequence | gcPBM binding intensity (ln)
1 | TTTATTTTAAAATTTACACACAAAAGGATTTATAGA [CACACA_site2338] | 9.11
2 | TATATTAATTAACAGTGTACAAAAAAAAATAAAAAA [XGTACX_site3702] | 9.5
3 | AAAATAAAAAGAAATTGTACGTATAATAATATATTT [XGTACX_site7593] | 9.25
4 | ATGGAATATTTCATGATTTTTTTAATTTTTTTATTG [XGTACX_negctrl_site55] | 9.12
5 | TATCTTTTTTTTAATACACACAAATTTATGAAAGTA [CACACA_site7879] | 9.2
6 | ATTTTCATATTTTTATGTACATATTATAAGAATATA [XGTACX_site3691] | 9.12
7 | TGTCTTTATATATATTTATTTTTTAGTATTACATAA [CACACA_negctrl_site21] | 9.4
8 | TGAAAAAAGAAAAATACACACATATAATATAATATA [CACACA_site2255] | 9.7
9 | TTTTTTATATTGATATTTATTAAATATGAAATGTTA [GTGCAC_negctrl_site405] | 8.78
10 | TTATATAAGATATTTCGTACACATTCAAAAATTATG [XGTACX_site7375] | 9.03
11 | AATAAAATATAAGGGGGTACGGAGAAAGGATACTAT [XGTACX_site7733] | 9.95
12 | CATACACCCCAACACACACACACACCCATATATAAT [CACACA_site8097] | 10.4
13 | AAAAAAAAAAAAAAAAGTACATATATTATATATATA [XGTACX_site2983] | 9.05
14 | CACGCACGCACATACACACACATACACATATAAATA [CACACA_site6907] | 9.95
15 | ATGTTGTTCATAAATATATTATTTTTAAATGTACAA [GTGCAC_negctrl_site507] | 9.02
16 | GTATTTAGATGATTAACACACATATGTGTATTAATA [CACACA_site6733] | 9.41
17 | ATATATTCACGTTAATGTACACATAATAAATTATAT [XGTACX_site5481] | 9.26
18 | ATATATATTATTGAATGTACATAATTATTTAATAGT [XGTACX_site4971] | 9.37
19 | AATTATATTGGTTGTAGTACTAAAAGTAAGTTAATG [XGTACX_site33] | 9.2
20 | TATTCACTGATATGTTGTACATAAAAAAAATTAAAT [XGTACX_site6128] | 9.09
21 | TATTTACACAAAATAAAATATATTATATATATATAT [TGCATGCA_negctrl_site381] | 8.93
22 | TTGCACAGATTAATCAAAAATTTTAAACCAAATATA [XGTACX_negctrl_site38] | 8.97

Row | Sequence | gcPBM binding intensity (ln)
23 | AGAATAGAATAAAAAACACACATTTACAACATTATT [CACACA_site3894] | 9.76
24 | TATTTATACATAGGTGGTACTACTTTAAACAAAAAA [XGTACX_site5062] | 9.06
25 | TATATGGAGAGATATGCACACTGTATGAATGCCCCC [CACACA_site8853] | 10.1
26 | AAATAAATAATATTCACACATAAAAAAAATGGAGTT [CACACA_site4525] | 9.47
27 | TTATATTTTTACAAGAGTACATATATATATATATAT [XGTACX_site5383] | 9.23
28 | GTGCAATATTTATTTTGTACATATTTATCAATAAAC [XGTACX_site8297] | 9.07
29 | ACATCGATTTATATTCTGCACTGAAGAAACTACAAC [GTGCAC_site9967] | 9.32
30 | TTTATTTGATGAACATGTACAAAAAAACAAAGAACA [XGTACX_site823] | 9.42
31 | TCAAACCAGTTGATGTGTACACATATAGTAATAATT [XGTACX_site6014] | 9.5
32 | ATTAAATATATTAAATGTACATAATATATATATATA [XGTACX_site5032] | 9.15
33 | TGATATTTTATTATTAAAATATATACATATATATAT [CACACA_negctrl_site1456] | 9.26
34 | ATAAAAATAAAATGGACACACATATATACCTATTTG [CACACA_site5761] | 9.7
35 | AAGAAAAAAAAAAAAAAAGATACTTTTTTAAAACTA [TGCATGCA_negctrl_site13] | 8.83
36 | ATATAAAGAAAAGGAACACACAAATATATATATATA [CACACA_site463] | 9.57
37 | ATATATTATTTTAAATGTACTCATAATAGAAATGTC [XGTACX_site40] | 9.14
38 | CACACAGGTAAAAAGGTGCAGTTGAAATATTCCTCA [GTGCAC_site9730] | 9.12
39 | GTGCTTATTTATACATGTACAAATGATAAGTTTGTA [XGTACX_site169] | 9.26
40 | TAAATATATTCATAAAGTACAAAGCAAAATTGTCTA [XGTACX_site7274] | 9.23
41 | GAAATAAATATATATGCATGTACTTTAATATTATTA [TGCATGCA_site904] | 9.13
42 | TTTTTTCTTTTATGTGAAATGTAATATTGTTATATA [GTGCAC_negctrl_site715] | 9.11
43 | AGGTGATTGATATATACACACATACCTATATTTATA [CACACA_site7348] | 9.62
44 | TGTTTATTTAATAATATTTTTTTTTTTATTATATTA [XGTACX_negctrl_site56] | 9.01

Row | Sequence | gcPBM binding intensity (ln)
45 | TTATTAAAATATTCTAGTACATATAAAAGGAGAACA [XGTACX_site4374] | 9.28
46 | AGCTCTCAAAATTATTCACACGTGTCCTGTTATATA [CACACA_site5415] | 9.73
47 | ATATTTCATTAATGAACACACAAAGAGGTATATAAA [CACACA_site1519] | 9.51
48 | ATATTTAAAAATATAGTGCAATTATTCTAATGTGTT | 9.15
49 | AAATAAAAGGTTGAGAGTACATTTTTGTGTATGTAT [XGTACX_site5547] | 9.41
50 | AAAAAAAAAATACAACAAAGTTAAATAAATAAATAA [GTGCAC_negctrl_site402] | 9.34
51 | AAGAAAAAATATAATAATAATAAAATATATATAATA [TGCATGCA_negctrl_site475] | 9.29
52 | TTTGTTTTTCATAGTGCACACATAACCAAAAATAGT [CACACA_site9030] | 9.29
53 | TATTGTTTTGATTGATGTACATGTTTAAAATATATA [XGTACX_site8430] | 9.28
54 | AAAGTAAATTTAAGCACACACAACGAACTTTTATAC [CACACA_site7008] | 9.93
55 | TAATCTATTTATATGTGTACCTATTTAGAAATGACA [XGTACX_site5709] | 9.03
56 | TTTTTTATTGTGATACGTATATTATTTTTTGATAAA [CACACA_negctrl_site1] | 9.2
57 | TATATTTACATTGTAACACACATGAAATATATATAT [CACACA_site61] | 9.36
58 | TGTTGTAAATATGTTTGTACATAAATATATTATTTA [XGTACX_site5442] | 9.05
59 | AAAAAAAAATAATATTGTACACACATAAATTCTTTG [XGTACX_site4315] | 9.36
60 | TTAATTAATAGACACACACACATATAAATATAGATT [CACACA_site7143] | 10
61 | GTTTTATTAAAAATGTGTACTTAATTATGAAAAAAA [XGTACX_site4689] | 8.91
62 | GTGTATTTTCTGCGCACACACATGCAAAAAGAAATA [CACACA_site1148] | 9.44
63 | GTATCATTAAATTATTGTACATATATATATATATAT [XGTACX_site8809] | 9.45
64 | TATTCCTTCTACAATTAAATAATTATAATAAATATA [GTGCAC_negctrl_site26] | 8.92
65 | AACAAAAATAGAAACACACATACATTGGTTTTCTTT [CACACA_site2534] | 9.44
66 | TATTTTTGTATATATTTATTCTTATTTTACAGGAAA [TGCATGCA_negctrl_site472] | 9.12

Row | Sequence | gcPBM binding intensity (ln)
67 | ACATTTAAGTTTAGCTGTACATATTCATCATAATTA [XGTACX_site37] | 9.32
68 | AGTTTTATGTAGTGTTGTACTTTATACAAATATATT [XGTACX_site614] | 9.51
69 | GCGGGTTTATCTTTCGCACACCTTACATTTTAGAAT [CACACA_site2015] | 9.41
70 | ATATCACATTCCACGGTACACACTAAAAGAAAAATC [CACACA_site3611] | 9.61
71 | ATAAATCAAAGGCACACACACAAAAAAAAAAAAAAA [CACACA_site160] | 9.82
72 | TGTTTTTTATATTACTGTACATGTTTTGGAATAATA [XGTACX_site4716] | 9.28
73 | ATAAAGCCATACAATACACACATTTGACATGTCCGT [CACACA_site7523] | 9.57
74 | GAAATTTTTAAATACAGTACACACATGGGTTTAAAT [XGTACX_site6124] | 9.47
75 | ATACTTCAATCTATTTGTACATATTTTTTAAAACCA [XGTACX_site2328] | 9.29
76 | AATAATAAAAAATATACACACATATATAAATAAATA [CACACA_site6164] | 9.77
77 | TAAGAAAAAAAATAATGTACATATGTATTTGAGAAA [XGTACX_site3569] | 9.27
78 | TATATATATATATATTGTACTAATTGTGCAAATGAG [XGTACX_site682] | 9.06
79 | AAAAAAAAAAAAAAAAAAAAAAAAAAATATATATAT [CACACA_negctrl_site271] | 9.26
80 | TGCTACTTATAAATAGAACACACATAAGTGTATTTG [CACACA_site9253] | 9.31
81 | AAGAAAAAAAAAAAAAAAAAAAAAAAAAAGGAAAAA [GTGCAC_negctrl_site174] | 9.04
82 | ATTTTTTTTTTTATGTGTACATATATTTTTTTAATT [XGTACX_site7921] | 9.51
83 | ATTTAATTTATAAAAACACACACAGGTAAAAAGGTG [CACACA_site8306] | 9.88
84 | AAGAAAAAATAAACATGTACATAAATATATATATAT [XGTACX_site304] | 9.51
85 | TAAGGCCCTTTTCATCGTACAGTAAAATATAAATAA [XGTACX_site1278] | 9.04
86 | CATACTGTGATAGCACCACACACGCAAAAGAGGGTA [CACACA_site8285] | 9.52
87 | CAAATACATGTGTAAAGTACATATTAATAAGTCTTT [XGTACX_site6342] | 9.4
88 | AATTTAACCCATTTTATAATTATTACCACTATATAT [TGCATGCA_negctrl_site452] | 9.48
